In all, about 33,000 sequences were measured (“E-score (-0.5 to 0.5)”: median about -0.01, highest 2% from about 0.26 on). This is one part of the list.

The assay addresses Ste12 (UniProt P13574). Nature of the assay: PBM E-score (8-mer binding enrichment) (E-score (-0.5 to 0.5)); higher = stronger / more preferred TF binding; most listed sequences are background and not binding sites. Particulars: protein concentration: 200 nM; construct: GST-DNA-binding domain. The gist of the method:
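The E-score, a modified Wilcoxon-Mann-Whitney statistic, was computed by the Universal PBM Analysis Suite for every ungapped eight-base word pooled with its reverse complement. Scans behind it were normalised with masliner after bound GST-tagged yeast transcription factors were detected with fluorescent anti-GST. The proteins, at about 100-200 nM, had been applied to universal all-10-mer Agilent arrays made double-stranded by primer extension.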
Turning to AATCCTTG, the “PBM E-score” value was 0.0237. As to AAAGGCAT, the “PBM E-score” value was -0.0749. As for AGCTGAGC, the “PBM E-score” value is -0.298. Under CTGCGATC stands -0.076; under CTTTTCCC, 0.073; under ATGAGTAA, 0.00434.

With AGAAAGTG, the “PBM E-score” value was -0.147.

Take ATTGCATC: the “PBM E-score” value came to 0.152. As to AAAGTAAA, the “PBM E-score” value amounted to 0.224. Regarding CGGTGAAA, the “PBM E-score” value stood at 0.245. As to AAGAAGAT, the “PBM E-score” value is 0.0722. Regarding AATGGGAA, the “PBM E-score” value is -0.151. For the sequence AACATGGC, the “PBM E-score” value was -0.166. Turning to GGGGCACC, the “PBM E-score” value was -0.0552. In the case of ATACAATG, the “PBM E-score” value worked out at 0.0962.

Consider ACGAAAAG, for which the “PBM E-score” value came to 0.16. The same measure for CAACTGAC: -0.11; for GAAAAAGC: 0.226; for GCTCCACA: -0.0645. Regarding CTCCTTTA, the “PBM E-score” value was -0.0987. Under AAGAAATA stands 0.147; under ATGCTATA, -0.188. Under GCAATAGA stands 0.0301.

For the sequence AACACGTT, the “PBM E-score” value was -0.00917.

Consider TCTGCAAA, for which the “PBM E-score” value was -0.0565. Under AGAGCCTA stands -0.104; under AGCGCCGA, -0.135. For the sequence GTACATAC, the “PBM E-score” value is -0.112. Under ATCACAAC stands -0.0336; under CGTTAACG, -0.0707; under CAAGAACC, -0.0297.

On to TGCCGTAA, for which the “PBM E-score” value was -0.209. Under GAGCCTAA stands -0.185; under GAAGGCGC, -0.122; under ATAATTCA, 0.159. Take AGCTATTA: the “PBM E-score” value is -0.0498. On to TCTGACAA, for which the “PBM E-score” value worked out at 0.118.

For CCGTTCCA, the “PBM E-score” value is -0.0227.

Take CGCAACTA: the “PBM E-score” value turned out to be 0.0849. Under CAAAGCGG stands 0.00547.

On to AGCGTCAT, for which the “PBM E-score” value was -0.00577.

Regarding CACTATGG, the “PBM E-score” value is -0.0915. Take CTTTACGC: the “PBM E-score” value is -0.0846.

As to CAATCCAG, the “PBM E-score” value was -0.0475.

For ACACATAG, the “PBM E-score” value was -0.0287. Under GACTCGTA stands -0.147. The same measure for AGAGTGTG: -0.0777. The same measure for ACAGTTAG: 0.0224; for ACGCGACG: -0.0146. Consider CACTACAA, for which the “PBM E-score” value is 0.232. Turning to AAAGTTCT, the “PBM E-score” value is -0.0249. For ACGGCGAT, the “PBM E-score” value is -0.069.

In the case of AATTTAGC, the “PBM E-score” value is 0.0929. For the sequence CAAATCTG, the “PBM E-score” value came out at 0.207.

Take ACATAAGT: the “PBM E-score” value turned out to be 0.0446.

Regarding GATTAAGC, the “PBM E-score” value worked out at 0.0349. Under AAACTTCA stands 0.17. Take CTCCCCGA: the “PBM E-score” value is 0.0416. CGCCTTGA: the “PBM E-score” value was -0.167. In the case of TCGGTCAA, the “PBM E-score” value is -0.029. Take CGTCGCTA: the “PBM E-score” value was -0.0969. Under GCACTCCC stands -0.0179; under ATCGAGAT, -0.0582. The same measure for GAAACTGA: 0.114; for CCGACCTA: 0.0599. Under AAAGACCG stands 0.0453. For the sequence CCCTGGCC, the “PBM E-score” value is -0.24. Regarding CTTTATTC, the “PBM E-score” value was found to be 0.0873. Consider GAAGAAAA, for which the “PBM E-score” value stood at 0.197. The same measure for GCCACCGC: -0.0362; for ATCGGTTA: 0.126; for AGAAGAGG: -0.0146. ATAACTAC: the “PBM E-score” value is -0.00165. The same measure for CACCCCTC: 0.192. Take ACCCGTGC: the “PBM E-score” value was -0.232.

As to CCTGCAGG, the “PBM E-score” value is -0.16. CAAGATTG: the “PBM E-score” value turned out to be 0.0884. As for CATAGTCA, the “PBM E-score” value was -0.0776.

Turning to GTTTATAA, the “PBM E-score” value was found to be 0.238. Under CGAGTCTC stands -0.155; under CGACCTAA, 0.141; under ATTGCAGC, 0.0218. The same measure for ACAGCGGG: -0.171; for GCTACGTA: -0.128; for ACTTGCAT: 0.0613. The same measure for ATGCCTGG: -0.00205.
